{"source": "paper PMC12136788", "binders": {"B1": {"name": "chr18:40848303:40848304:-_ENSG00000132872_ENST00000255224|hu_mus|motif|central (ssRNA)", "RNA": "GGGAGUUCUACAGUCCGACGAUCUAAAACCAGUUAUAGUUUCAAUCAACUUUCCCCAUCAAAACACUUUAAGUCGUAAAACGGAAAACUAUUUACAAUUUUUAAAGUAUUUGUUGUCAGAUUUAUUUUCUAUUUUAAAAAAAACAACAGAGGAUUGAGCAUCA"}, "B2": {"name": "chr15:78764095:78764096:+_ENSG00000136381_ENST00000258886|hu_hu|FALSE|FALSE (ssRNA)", "RNA": "GGGAGUUCUACAGUCCGACGAUCGUUUAUUUGAUGAGCCAUUCCAGUUCCAGGAGGGAUCACUGCCACAUUCUUAAAAACUCUUGAACUCCACUUAAAAAACUGAAGCCUCUCUCGAUUUCUGCCGAAUUCUACUUCUUGAUUCAACAGAGGAUUGAGCAUCA"}, "B3": {"name": "chr1:58468927:58468928:-_ENSMUSG00000026034_ENSMUST00000148330|mus_mus|mus_mus_mus_hu_False|58_108 (ssRNA)", "RNA": "GGGAGUUCUACAGUCCGACGAUCAAUCUAUAAUUACGAUGUUCAUUACCUUAGCUAUGUACUUAAUGAACCAAAUUAUCUAAAAAAAAUAAACAUGGCAAUAUAAAAAUGUUAAGAAUUUACAAAGCUGUACAAAAUAACUUACAACAGAGGAUUGAGCAUCA"}, "B4": {"name": "chr13:58910217:58910218:+_ENSMUSG00000055254_ENSMUST00000079828|mus_mus|motif|central (ssRNA)", "RNA": "GGGAGUUCUACAGUCCGACGAUCGCUGUUAGGUUCCAACCUCGGGAAUGCCACGAUGCCUGGAGAAGGCUCAGUACACCAAAUCCGGGCGGAACUGCAUUUGCAGGACGUCGGGCAGGCGAGAGAGGCCCUCCAGAAGCCCAACAACAGAGGAUUGAGCAUCA"}, "B5": {"name": "39782579_39782699_3472_3pUTR_ENSG00000078140_ENST00000261427|human|control|control (ssRNA)", "RNA": "GGGAGUUCUACAGUCCGACGAUCUACAGCUAAUUAUUUCUUCUUUUAAAAGAGGCACAUACUCAGGAAACAGGCCUGAUUAUAACAAAAGCCUACUGGAGCAUCAGUGACUUCUAACAAAUCGGCCUGCCCUAAAUGGGAUUUCAACAGAGGAUUGAGCAUCA"}, "B6": {"name": "chr2:74399864:74399865:-_ENSG00000114978_ENST00000396049|hu_mus|FALSE|FALSE (ssRNA)", "RNA": "GGGAGUUCUACAGUCCGACGAUCAGAGCUCAUACUGAUGGGACCCUUCAGGGAUAUUCUUCUUUGGUUUGAAUGUUUUCGAAGAGCGGCUGCUGAAGAGGAAGCUCAUCCUCGCUAGCCCGAGGGGCCGUGGCCCCCGCCCCGCAACAGAGGAUUGAGCAUCA"}, "B7": {"name": "134130677_134131770_1959_CDS_ENSG00000145833_ENST00000354283|human|control|control (ssRNA)", "RNA": "GGGAGUUCUACAGUCCGACGAUCCUUAUCCACAAAUAUAAUGACAGAUCCUGACUCUUGAUAAUGGCCUAGAAGCUCAAGUAACUUCAAGAAUUUCUUUUCUUCUUCAAUCACAAUCACUUGUUGCUCCACAUCUGAGCAAACCAACAGAGGAUUGAGCAUCA"}, "B8": {"name": "chr7:151048522:151048523:+_ENSG00000013374_ENST00000566856|hu_hu|FALSE|FALSE (ssRNA)", "RNA": "GGGAGUUCUACAGUCCGACGAUCUUGCUUCUUAUUUAUGACAAUUUUGAUAUAAUUUUCUUGAAGUCCAAAGGUUUCAGCUAUUUUGGACCUCAGUUCUCUGCCAGUGAUGUGCAAUCGGGUCUCCAACAAGUUUUUCCUAUCCAACAGAGGAUUGAGCAUCA"}, "B9": {"name": "chr11:77336104:77336105:-_ENSG00000074201_ENST00000525064|hu_mus|hu_hu_hu_mus_False|28_98 (ssRNA)", "RNA": "GGGAGUUCUACAGUCCGACGAUCCUCACACAUUGCUGUGAACAUUGCCUCCAAUGCUGACUUAUCACUGGGCACAAAUCGAAAUUCAGAAAUGGGUUCAACAUCAUCAUCACUGUCCUCAUCUUCAUCAGAGAGAGGUUCUUUCAACAGAGGAUUGAGCAUCA"}, "B10": {"name": "chr7:141450121:141450122:+_ENSG00000106028_ENST00000265304|hu_mus|hu_hu_hu_mus_True|28_68 (ssRNA)", "RNA": "GGGAGUUCUACAGUCCGACGAUCUCAUCCGUUCUAUGCCUUUUCUUUUGUCUGGUCACUCAGAAAUAUAAUAUUAUCAGCUAUGAUUGUUGUUGCUUGCCGCCUCACAUUAUUUUUAUCCAUGUACUCGCCAUAGUCCACUUUCAACAGAGGAUUGAGCAUCA"}, "B11": {"name": "chr13:107772667:107772668:-_ENSMUSG00000021693_ENSMUST00000022204|mus_hu|FALSE|FALSE (ssRNA)", "RNA": "GGGAGUUCUACAGUCCGACGAUCCAUUUCAUUAGGAGCUGAGUCAUCAAAGGCAUAAUCAAAACGAAAUGUUUGGUUUUCUAGGUACCUUGUUAAAUCUACUUUUUGUUUUGGUUCAUGUACCAUCACAACAUCUUUACUAGGCAACAGAGGAUUGAGCAUCA"}, "B12": {"name": "62888798_62888918_752_CDS_ENSG00000061987_ENST00000546600|human|control|control (ssRNA)", "RNA": "GGGAGUUCUACAGUCCGACGAUCUGCCUCAUCAUGAACUACUGUAUUGGUUGUUAAAAGAACAAGAACUGUUUGAAGUAGCUUAAGUUCUUCAAGACUAUUCUCCAUUAGCUGCCAAAGCAUGUUAAUUAUAUUUCCAGCUGCCAACAGAGGAUUGAGCAUCA"}, "B13": {"name": "chr1:202722107:202722108:-_ENSG00000117139_ENST00000367264|hu_hu|motif|central (ssRNA)", "RNA": "GGGAGUUCUACAGUCCGACGAUCCAUGAUGGUCACAAGCUGAUGGAGGAGAUCCGGCUGGGACACAAAGAGUUCUGGAGCGGGUUUCUUCAUUACAUUUUCUAGCUGCUCAGCAGCAUACCCUGGGACUCCAUACCAGGUUUUCAACAGAGGAUUGAGCAUCA"}, "B14": {"name": "chr1:58468927:58468928:-_ENSMUSG00000026034_ENSMUST00000148330|mus_mus|mus_mus_mus_hu_False|68_88 (ssRNA)", "RNA": "GGGAGUUCUACAGUCCGACGAUCAAUUACUGAAAAAGAUGUUCAUUUAUUUGGUUUUGUACUUAAUUUAAUAAAGCACCCAAACAAAAUAAACAUGGCAAUAUAAAAAUGUUAAGAAUUUACAAAGCUGUACAAAAUAACUUACAACAGAGGAUUGAGCAUCA"}, "B15": {"name": "30145919_30148471_1160_CDS_ENSMUSG00000024817_ENSMUST00000025739|mouse|control|control (ssRNA)", "RNA": "GGGAGUUCUACAGUCCGACGAUCGGAAAUGGGAUGGGCUCCAGGCUUCUCAAUCUUGAAGAUUUCAUCUACAGACAUCACUCGGCAGUCAUUUAAUGUGCCUUCAGAGCCCCCCAGGAAAACUUUCACACGAACUUCCUUUUUCAACAGAGGAUUGAGCAUCA"}, "B16": {"name": "chr14:102446093:102446094:+_ENSG00000197102_ENST00000360184|hu_mus|FALSE|FALSE (ssRNA)", "RNA": "GGGAGUUCUACAGUCCGACGAUCCUCUGGGAUCUCAAUGUUCUGCUGCAGGUGGAGGAGUCCCAUUUCAAGCUCUGCAAUCUUUUUUUCAACUGAAGGAGCCAUCUUAUCACCAUCCCUGUCUGCUUUGCCAGACUCUCUGAUCAACAGAGGAUUGAGCAUCA"}, "B17": {"name": "chr15:37385894:37385895:-_ENSG00000134138_ENST00000382766|hu_mus|FALSE|FALSE (ssRNA)", "RNA": "GGGAGUUCUACAGUCCGACGAUCGCUUCCAUCUCUCUCAUCAAUCACGAGGUCAAUGGGCAUUUUUCCCUUCAAACAGCUAAUGUACCGGUGGCAGAAGUUAUCACAUAGUUCGUGGACCUUUUCUAACUCCAGAAGAUGAAACAACAGAGGAUUGAGCAUCA"}, "B18": {"name": "chr1:163117127:163117128:-_ENSG00000143248_ENST00000313961|hu_mus|hu_hu_hu_mus_False|68_108 (ssRNA)", "RNA": "GGGAGUUCUACAGUCCGACGAUCUGCGGGUUAUUAUGUAACUCAACUCACAGGGCAACUUUUGGAAGCCUGGCUAAAUGACUACUUGAUUAGCUCCUUAUAAAAUUCAGAGCGCACAAAGCGGGGCAGAGAAUCCUUCUCCAUCAACAGAGGAUUGAGCAUCA"}, "B19": {"name": "101243506_101243626_2615_CDS_ENSMUSG00000042035_ENSMUST00000043983|mouse|control|control (ssRNA)", "RNA": "GGGAGUUCUACAGUCCGACGAUCUCGCCACAGCUCUGCCACGCACUGGUACUUGCCUGCCUCUGUGUCACUGGCCCGGCUGAUGCUCAGGCGGACAUUGUUGCUGGACUCAGCCUUCUCAAUGGCAGUCCGAGUUCGGAAAGUCAACAGAGGAUUGAGCAUCA"}, "B20": {"name": "chr14:76904430:76904431:+_ENSMUSG00000022010_ENSMUST00000022587|mus_mus|mus_mus_mus_hu_True|8_18 (ssRNA)", "RNA": "GGGAGUUCUACAGUCCGACGAUCUGCAGCCAAAAACACCCUCGUGGAAAAAAAGAGGGAACACCAGCAGCCUUGUAUAAGCUAGAUAAAAUCUUCUGGCUUUCCGCAGCCCAGGGAGUGAGAACGGUGGUGCUGGCUAAUUUACAACAGAGGAUUGAGCAUCA"}, "B21": {"name": "chr11:118888195:118888196:-_ENSG00000118181_ENST00000527673|hu_mus|FALSE|FALSE (ssRNA)", "RNA": "GGGAGUUCUACAGUCCGACGAUCCUUAUAGUUCGGAACCUCCUUACAGAGCUUGUCGUAUGUCGCUUUGUCGAACAGGACAAGAUUGUUCAACUUGUCCCGAACUUUGCCUUUGGACCACUUCUUCUUCUUGGCCUUGCCACCCAACAGAGGAUUGAGCAUCA"}, "B22": {"name": "chr13:67002414:67002415:-_ENSMUSG00000021520_ENSMUST00000021993|mus_hu|FALSE|FALSE (ssRNA)", "RNA": "GGGAGUUCUACAGUCCGACGAUCCUCUUUAGGCAAGAUCUGAUGCUUCAAGUUCAGGUCCAGUGCCCUCUUAAUGCGAAACAUCCUGUCAUUAUAAAGGUUCUCAGGAAGUCUUCUUAUGGCUUCUUUUACAUCUUCAUCCUCCAACAGAGGAUUGAGCAUCA"}}, "note": "Some of the results follow.", "data": [{"target": "T1, UNK ZnF1-3 (human, UniProt Q9C0B0 31-174)", "T1 sequence": "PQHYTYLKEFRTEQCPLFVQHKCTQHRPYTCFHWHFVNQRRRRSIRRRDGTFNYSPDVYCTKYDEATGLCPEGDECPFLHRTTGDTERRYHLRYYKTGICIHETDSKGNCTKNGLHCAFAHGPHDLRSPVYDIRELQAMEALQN", "assay": "nsRBNS (natural sequence RNA bind-n-seq); RBNS binding buffer (assumed for nsRBNS): 25 mM Tris pH 7.5, 150 mM KCl, 3 mM MgCl2, 0.01% Triton X-100, 500 ug/ml BSA, 20 U/ml SUPERase-In, 4 C; UNK is unkempt and MSI1 is Musashi-1; names of the RNAs are library labels; protein concentration not given here; high values mean tight binding", "units": {"binding signal": "enrichment R"}, "values": [{"binder": "B1", "binding signal": 1.75}, {"binder": "B2", "binding signal": 1.44}, {"binder": "B3", "binding signal": 0.878}, {"binder": "B4", "binding signal": 0.599}, {"binder": "B5", "binding signal": 0.871}, {"binder": "B6", "binding signal": 0.949}, {"binder": "B7", "binding signal": 0.925}, {"binder": "B8", "binding signal": 0.673}, {"binder": "B9", "binding signal": 0.972}, {"binder": "B10", "binding signal": 0.521}, {"binder": "B11", "binding signal": 0.78}, {"binder": "B12", "binding signal": 0.996}, {"binder": "B13", "binding signal": 1.09}, {"binder": "B14", "binding signal": 1.17}, {"binder": "B15", "binding signal": 0.912}, {"binder": "B16", "binding signal": 0.677}, {"binder": "B17", "binding signal": 0.878}, {"binder": "B18", "binding signal": 0.936}, {"binder": "B19", "binding signal": 0.739}, {"binder": "B20", "binding signal": 1.82}, {"binder": "B21", "binding signal": 0.467}, {"binder": "B22", "binding signal": 0.492}]}]}
